Many values rest on one well or one pass, so single values are uncertain.
Legend:
CHO-K1 [1] = experiment: micronucleus frequency (% of nucleated events); higher = more micronuclei (genotoxic)
CHO-K1 [2] = experiment: relative survival (nuclei to bead ratio vs DMSO control) (% of vehicle control); higher = more surviving cells
Protocol: (§1)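 Flow-cytometric in vitro micronucleus assay (Litron MicroFlow) in CHO-K1 cells in 96-well plates, 19 concentrations (4.5-200 µM, n=1 per concentration). Without S9, cells were exposed for 24 h and sampled at 48 h. With Aroclor 1254-induced rat liver S9, cells were exposed for 3-4 h and sampled at 27-28 h. Read-outs are %MN and %hypodiploid nuclei relative to nucleated events, and relative survival as the nuclei-to-bead ratio versus the 1% DMSO vehicle control (x100).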

CHO-K1 [3] = experiment: hypodiploid nuclei frequency (% of nucleated events); higher = more hypodiploid events (aneugenic)
Protocol: as §1
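For hypodiploid nuclei frequency (% of nucleated events) in this document: hypodiploid nuclei gated on a flow cytometer with 488 nm excitation after SYTOX Green staining, cultures at 37 °C, positive controls vinblastine without S9 and cyclophosphamide with S9.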
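For micronucleus frequency (% of nucleated events) in this document: cells lysed with nuclei stained by SYTOX Green, then micronucleus-gated events counted against nucleated events by flow cytometry with 488 nm excitation.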
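For relative survival (nuclei to bead ratio vs DMSO control) in this document: Lysed-cell nuclei stained with SYTOX Green and counted against counting beads by flow cytometry at 488 nm excitation, with vinblastine (no S9) and cyclophosphamide (plus S9) as positive controls.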

C=CCc1ccc(O)c(OC)c1 [Eugenol]
Settings	hypodiploid nuclei frequency, CHO-K1 [3] [%]	micronucleus frequency, CHO-K1 [1] [%]	relative survival, CHO-K1 [2]
concentration: 4.5 (µM), S9 metabolic activation: with S9, exposure time: 3-4 hours	0.26	1.56	99.6
concentration: 4.5 (µM), S9 metabolic activation: without S9, exposure time: 24 hours	0.6	3.06	98.8
concentration: 5.63 (µM), S9 metabolic activation: with S9, exposure time: 3-4 hours	0.26	1.42	108
concentration: 5.63 (µM), S9 metabolic activation: without S9, exposure time: 24 hours	0.46	2.64	111
concentration: 7.04 (µM), S9 metabolic activation: with S9, exposure time: 3-4 hours	0.14	1.08	121
concentration: 7.04 (µM), S9 metabolic activation: without S9, exposure time: 24 hours	0.5	2.5	99.8
concentration: 8.8 (µM), S9 metabolic activation: with S9, exposure time: 3-4 hours	0.22	1.32	141
concentration: 8.8 (µM), S9 metabolic activation: without S9, exposure time: 24 hours	0.26	1.96	97.9
concentration: 11 (µM), S9 metabolic activation: with S9, exposure time: 3-4 hours	0.18	1.04	111
concentration: 11 (µM), S9 metabolic activation: without S9, exposure time: 24 hours	0.62	2.7	96.1
concentration: 13.7 (µM), S9 metabolic activation: with S9, exposure time: 3-4 hours	0.1	1.08	106
concentration: 13.7 (µM), S9 metabolic activation: without S9, exposure time: 24 hours	0.3	1.88	90.7
concentration: 17.2 (µM), S9 metabolic activation: with S9, exposure time: 3-4 hours	0.32	2.2	109
concentration: 17.2 (µM), S9 metabolic activation: without S9, exposure time: 24 hours	0.42	1.9	78.2
concentration: 21.5 (µM), S9 metabolic activation: with S9, exposure time: 3-4 hours	0.28	1.72	132
concentration: 21.5 (µM), S9 metabolic activation: without S9, exposure time: 24 hours	0.36	1.92	82.2
concentration: 26.8 (µM), S9 metabolic activation: with S9, exposure time: 3-4 hours	0.26	1.52	76.3
concentration: 26.8 (µM), S9 metabolic activation: without S9, exposure time: 24 hours	0.36	1.24	84.2
concentration: 33.6 (µM), S9 metabolic activation: with S9, exposure time: 3-4 hours	0.2	1.42	99.9
concentration: 33.6 (µM), S9 metabolic activation: without S9, exposure time: 24 hours	0.46	1.56	84.5
concentration: 41.9 (µM), S9 metabolic activation: with S9, exposure time: 3-4 hours	0.12	0.98	58.8
concentration: 41.9 (µM), S9 metabolic activation: without S9, exposure time: 24 hours	0.54	1.84	61.8
concentration: 52.4 (µM), S9 metabolic activation: with S9, exposure time: 3-4 hours	0.42	1.83	48.1
concentration: 52.4 (µM), S9 metabolic activation: without S9, exposure time: 24 hours	0.64	2.16	82.8
concentration: 65.5 (µM), S9 metabolic activation: with S9, exposure time: 3-4 hours	–	–	33.1
concentration: 65.5 (µM), S9 metabolic activation: without S9, exposure time: 24 hours	0.6	2.48	73.3
concentration: 81.9 (µM), S9 metabolic activation: with S9, exposure time: 3-4 hours	–	–	18.5
concentration: 81.9 (µM), S9 metabolic activation: without S9, exposure time: 24 hours	0.68	2.44	72.8
concentration: 102 (µM), S9 metabolic activation: with S9, exposure time: 3-4 hours	–	–	18.7
concentration: 102 (µM), S9 metabolic activation: without S9, exposure time: 24 hours	0.6	3.06	74
concentration: 128 (µM), S9 metabolic activation: with S9, exposure time: 3-4 hours	–	–	6.23
concentration: 128 (µM), S9 metabolic activation: without S9, exposure time: 24 hours	1.08	3.52	59.4
concentration: 160 (µM), S9 metabolic activation: with S9, exposure time: 3-4 hours	–	–	2.9
concentration: 160 (µM), S9 metabolic activation: without S9, exposure time: 24 hours	0.9	2.82	96.6
concentration: 200 (µM), S9 metabolic activation: with S9, exposure time: 3-4 hours	–	–	0.59
concentration: 200 (µM), S9 metabolic activation: without S9, exposure time: 24 hours	1.48	4.5	79.7

Nc1nc(=O)c2nc(CNc3ccc(C(=O)N[C@@H](CCC(=O)O)C(=O)O)cc3)cnc2[nH]1 [Folic acid]
Settings	hypodiploid nuclei frequency, CHO-K1 [3] [%]	micronucleus frequency, CHO-K1 [1] [%]	relative survival, CHO-K1 [2]
concentration: 4.5 (µM), S9 metabolic activation: with S9, exposure time: 3-4 hours	0.2	1.36	124
concentration: 4.5 (µM), S9 metabolic activation: without S9, exposure time: 24 hours	0.82	3.1	107
concentration: 5.63 (µM), S9 metabolic activation: with S9, exposure time: 3-4 hours	0.02	1.12	98.8
concentration: 5.63 (µM), S9 metabolic activation: without S9, exposure time: 24 hours	0.44	1.86	107
concentration: 7.04 (µM), S9 metabolic activation: with S9, exposure time: 3-4 hours	0.2	0.96	102
concentration: 7.04 (µM), S9 metabolic activation: without S9, exposure time: 24 hours	0.44	2.28	90.8
concentration: 8.8 (µM), S9 metabolic activation: with S9, exposure time: 3-4 hours	0.14	1.24	88.9
concentration: 8.8 (µM), S9 metabolic activation: without S9, exposure time: 24 hours	0.74	2.82	110
concentration: 11 (µM), S9 metabolic activation: with S9, exposure time: 3-4 hours	0.14	1.12	101
concentration: 11 (µM), S9 metabolic activation: without S9, exposure time: 24 hours	0.6	1.76	127
concentration: 13.7 (µM), S9 metabolic activation: with S9, exposure time: 3-4 hours	0.26	1.12	120
concentration: 13.7 (µM), S9 metabolic activation: without S9, exposure time: 24 hours	0.64	3.02	104
concentration: 17.2 (µM), S9 metabolic activation: with S9, exposure time: 3-4 hours	0.14	0.72	113
concentration: 17.2 (µM), S9 metabolic activation: without S9, exposure time: 24 hours	0.6	2.44	147
concentration: 21.5 (µM), S9 metabolic activation: with S9, exposure time: 3-4 hours	0.24	1.04	115
concentration: 21.5 (µM), S9 metabolic activation: without S9, exposure time: 24 hours	0.64	1.62	93
concentration: 26.8 (µM), S9 metabolic activation: with S9, exposure time: 3-4 hours	0.2	1.12	131
concentration: 26.8 (µM), S9 metabolic activation: without S9, exposure time: 24 hours	0.68	2.48	104
concentration: 33.6 (µM), S9 metabolic activation: with S9, exposure time: 3-4 hours	0.16	1.46	109
concentration: 33.6 (µM), S9 metabolic activation: without S9, exposure time: 24 hours	0.6	2.24	104
concentration: 41.9 (µM), S9 metabolic activation: with S9, exposure time: 3-4 hours	0.12	1.58	114
concentration: 41.9 (µM), S9 metabolic activation: without S9, exposure time: 24 hours	0.8	2.04	105
concentration: 52.4 (µM), S9 metabolic activation: with S9, exposure time: 3-4 hours	0.1	1.14	118
concentration: 52.4 (µM), S9 metabolic activation: without S9, exposure time: 24 hours	0.78	1.94	152
concentration: 65.5 (µM), S9 metabolic activation: with S9, exposure time: 3-4 hours	0.12	1.6	91.8
concentration: 65.5 (µM), S9 metabolic activation: without S9, exposure time: 24 hours	0.76	2.06	113
concentration: 81.9 (µM), S9 metabolic activation: with S9, exposure time: 3-4 hours	0.1	1.26	94.6
concentration: 81.9 (µM), S9 metabolic activation: without S9, exposure time: 24 hours	0.84	2.2	98.6
concentration: 102 (µM), S9 metabolic activation: with S9, exposure time: 3-4 hours	0.28	1.58	94.9
concentration: 102 (µM), S9 metabolic activation: without S9, exposure time: 24 hours	0.88	1.5	115
concentration: 128 (µM), S9 metabolic activation: with S9, exposure time: 3-4 hours	0.48	2.98	136
concentration: 128 (µM), S9 metabolic activation: without S9, exposure time: 24 hours	1.08	1.78	108
concentration: 160 (µM), S9 metabolic activation: with S9, exposure time: 3-4 hours	0.34	1.76	102
concentration: 160 (µM), S9 metabolic activation: without S9, exposure time: 24 hours	1.16	1.84	122
concentration: 200 (µM), S9 metabolic activation: with S9, exposure time: 3-4 hours	0.1	1.76	97.4
concentration: 200 (µM), S9 metabolic activation: without S9, exposure time: 24 hours	1.46	2.4	81.5

From the supplement of paper PMC9151546
